# Measurements taken from PubChem BioAssay AID493208 (National Center for Advancing Translational Sciences (NCATS), 2011).
# About 340 (0.77%) of roughly 44,000 compounds were called active. Another 5% or so got no clear call; they are omitted. Calls follow the shape of the dose curve; as a rule, active = well fitted inhibition curve with a large enough effect; inconclusive = small, poorly fitted or top-dose-only effect; inactive = flat fitted curve, though single readings scatter. This is one part of the list.
# Test: Acumen qHTS Assay for Inhibitors of the mTORC1 Signaling Pathway in MEF (Tsc2-/-, p53-/-) Cells: Sytravon; also: nearly all actives have a fitted effect of over 50% in size;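 as to activity change, negative = inhibition: plate controls were DMSO for no effect and rapamycin for full effect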
# Details: phospho-rpS6 immunofluorescence/PI, 24 h; series mostly up to 38.3 µM; activity change, negative = inhibition: at the top concentration
# How it was run: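 Plate MEFs (Tsc2-/-, p53-/-, empty vector) in DMEM/10% FBS; after 24 h add compound, incubate 24 h at 37 degree Celsius; fix in PFA/TX-100, block, stain phospho-rpS6 and 10 uM PI; scan at 488 nm; report % positive cells.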
# Potency is read from the fitted curve at half-maximal effect.
SMILES,"activity change, negative = inhibition",Potency
COc1ccc(S(=O)(=O)n2nc(-c3ccco3)nc2NCc2ccc(C(C)C)cc2)cc1,inactive: -1.86%,–
CCOc1ccc(NC(=O)c2nc(S(=O)(=O)Cc3ccccc3F)ncc2Cl)cc1,–,active: 3.69 µM
O=C(NCCCN1CCN(c2ccccc2F)CC1)c1ccc2nc(CCc3ccccc3)oc2c1,inactive: -12.5%,–
CCOc1ccc(C(=O)Nc2ccc(OCc3cc(=O)n4cccc(C)c4n3)cc2)cc1,inactive: 0.189%,–
CC(=O)NCCNC(=O)CCCc1nnc2n(CC(C)C)c(=O)c3sccc3n12,inactive: -3.33%,–
COc1ccc(-c2cc(-c3nc(-c4cc(OC)c(OC)c(OC)c4)no3)[nH]n2)c(OC)c1,inactive: -18.3%,–
CCc1nnc2c3ccccc3nc(Nc3cc(C)cc(C)c3)n12,inactive: -13.8%,–
COc1ccc(S(=O)(=O)NCc2cccn2Cc2cc(C)ccc2C)cc1OC,inactive: 6.49%,–
COc1cccc(NC(=O)Cn2c(=O)n(Cc3ccc(F)cc3)c(=O)c3sc4ccccc4c32)c1,inactive: 2.22%,–
CCOc1ccc(CCNC(=O)c2c(C)oc3ncn(CC(C)C)c(=O)c23)cc1OCC,inactive: -3.2%,–
CC(=O)N1CCc2c(sc3c2c(=O)n(-c2ccccc2)c(=O)n3CC(=O)Nc2cc(C)cc(C)c2)C1,inactive: -3.1%,–
Cc1ccc(-n2nc(C(=O)N3CCN(c4ccccc4F)CC3)c(=O)n(C)c2=O)cc1,inactive: 2.83%,–
CCCCCc1ccc(-c2ccc(Br)cc2)nc1,inactive: -8.61%,–
O=C(NCc1ccccc1F)C(=O)NCC(c1ccc2c(c1)OCO2)N1CCOCC1 (centres undefined),inactive: -1.07%,–
CCc1ccc(NC(=O)CSc2nc(C)c(C(=O)Nc3ccccc3)c(-c3ccc(OC)c(OC)c3)c2C#N)cc1,inactive: 0.28%,–
Cc1cc(Br)ccc1NC(=O)CSc1c2c(nc3ccccc13)CCC2,inactive: -10.3%,–
CCOc1ccc(CNC(=O)CCc2c(C)nn(-c3ccc(N4CCCCC4)nn3)c2C)cc1,inactive: -2.46%,–
CC(C)(C)C(=O)CSc1nc2ccsc2c(=O)n1Cc1ccccc1Cl,inactive: -0.006%,–
CSc1ccc(CCNC(=O)c2cc(C)nc3c2c(C)nn3-c2cccc(F)c2)cc1,inactive: 6.65%,–
COc1ccccc1N1CCN(c2ccc(=O)n(CC(=O)NCc3ccc(F)cc3)n2)CC1,inactive: -7.62%,–
COc1ccc(NC(=O)c2cc3cc(C)ccc3[nH]2)cc1,inactive: -0.695%,–
CCOc1ccccc1NC(=O)CSc1nc2c(oc3ccccc32)c(=O)n1-c1ccc(F)cc1,inactive: 2.63%,–
COc1cccc(CSc2nc3n(n2)C(c2ccc(C(=O)O)cc2)C(C(=O)Nc2ccccc2)=C(C)N3)c1 (centres undefined),inactive: -5.7%,–
O=C(OCc1cc(=O)n2nc(-c3cccs3)sc2n1)c1ccccc1Cl,inactive: -1.07%,–

SMILES,"activity change, negative = inhibition",Potency
CSc1ccccc1-c1nnc(NC(=O)c2ccc3c(c2)OCCO3)o1,inactive: -10.4%,–
Cc1c(C(=O)N2CCCCCC2)c(S(=O)(=O)NCc2ccccc2)c(C)n1C,inactive: -13.9%,–
O=C(CSc1nc(=O)n(CCN2CCOCC2)c2c1CCC2)Nc1ccc(Cl)c(Cl)c1,inactive: 3.75%,–
O=C(Nc1ccc(F)c(Cl)c1)Nc1c[nH]c(=O)[nH]c1=O,inactive: 0%,–
CC(CNC(=O)c1cnn(-c2ccc(F)cc2)c1-n1cccc1)c1ccccc1 (centres undefined),inactive: -4.94%,–
CC(=O)Nc1ccccc1-c1nc2ccccc2n(CC(=O)Nc2cccc(C)c2C)c1=O,inactive: -15%,–
Cc1ccc2nc(SCc3nc(-c4ccc(Cl)cc4)no3)[nH]c2c1,inactive: -21.7%,–
Cc1cc2c(cc1S(=O)(=O)Nc1cccc(Cl)c1C)n(C)c(=O)c(=O)n2C,inactive: -2.02%,–
Cc1cc(C)cc(N2C(=O)CSC23C(=O)N(Cc2c(F)cccc2Cl)c2ccccc23)c1 (centres undefined),inactive: 3.7%,–
CCOC(=O)c1cc(-c2ccccc2)n(CCC(=O)Nc2ccccc2CC)c1C,inactive: -5.03%,–
COc1ccc(C2CC(=O)N(Cc3ccc(C)cc3)c3c2c(C)nn3-c2nc(C)cc(C)n2)c(OC)c1 (centres undefined),inactive: 0.492%,–
Cc1cccc2nc(-c3ccccn3)c(Nc3ccc(F)cc3)n12,inactive: -15.5%,–
CCCCC12CN3CC(C)(CN(C1)C3c1c[nH]c3ccccc13)C2=O (centres undefined),inactive: 1.82%,–
CCCCC(CC)CNC(=O)Cc1ccc(-n2c(=O)[nH]c3ccccc3c2=O)cc1 (centres undefined),inactive: 1.06%,–
Cc1cccc(CSc2nc3c([nH]c4ccccc43)c(=O)n2C)c1,inactive: 1.39%,–
CC(=O)N1c2ccc(S(=O)(=O)Nc3ccc(C)c(Cl)c3)cc2CC1C (centres undefined),inactive: -22.1%,–
COc1ccc(N2CCN(S(=O)(=O)c3ccc(-c4coc(C)n4)cc3)CC2)cc1,inactive: 0.961%,–
CCOc1ccc(CC(=O)Nc2c(C(=O)c3ccccc3)oc3ccc(Cl)cc23)cc1OCC,inactive: -0.783%,–
Cc1c(CCNC(=O)c2ccc(C(C)(C)C)cc2)sc2nc(-c3ccc(F)cc3)nn12,inactive: -3.33%,–
CC1=C(C(=O)Nc2cccnc2)C(c2ccc(C)cc2)n2nc(SCc3ccccc3F)nc2N1 (centres undefined),inactive: -7.59%,–
COc1cc2c(cc1OC)n(CC(=O)c1cc(C)ccc1C)c(=O)n1nc(CCn3nc(C)cc3C)nc21,inactive: 0.166%,–
Cc1cc(Nc2ccc(F)cc2F)nc(-n2nc(C)cc2C)n1,inactive: 5.22%,–
CCc1cc2c(cc3c(=O)n(CCCC(=O)NCc4cccc(Br)c4)ncn32)s1,inactive: -5.51%,–
CNS(=O)(=O)c1cn(CC(=O)N2CCN(c3ccc(C(C)=O)cc3)CC2)cc1S(=O)(=O)NC,inactive: -3.51%,–

SMILES,"activity change, negative = inhibition",Potency
Cc1ccc(NC(=O)C(CC(C)C)N2Cc3ccccc3C2=O)cc1F (centres undefined),inactive: 0%,–
Cc1ccc(-n2ncc(C(=O)NCc3ccc4c(c3)OCO4)c2C2CCN(C(=O)OC(C)(C)C)CC2)c(C)c1,inactive: 3.9%,–
CC(=O)Nc1ccc(NS(=O)(=O)c2c(C(=O)N3CCCCCC3)c(C)n(C)c2C)cc1,inactive: 10.7%,–
COC(=O)c1ccc(NC(=O)c2cc(S(=O)(=O)N3CCOCC3)cn2C)cc1,inactive: -1.46%,–
Cc1ccccc1OCC(=O)Nc1ccc(S(=O)(=O)N(Cc2ccccc2)c2ccccc2)cc1,inactive: -3.03%,–
COc1ccc(CCNC(=O)CSc2cn(CCNC(=O)c3c(F)cccc3F)c3ccccc23)cc1OC,inactive: 5.99%,–
CN(C)c1ccc(NC(=O)Cn2c(SCc3ccc(F)cc3)nc3ccncc32)cc1,inactive: -4.11%,–
COc1ccc(Cn2c(=O)c3oc4ccccc4c3n(CC(=O)Nc3c(C)cccc3C)c2=O)cc1,inactive: -3.69%,–
Cc1ccc(C(=O)COC(=O)CCC(=O)Nc2ccc(Oc3ccccc3)cc2)cc1,inactive: 4.78%,–
Cc1oc2cc3oc(=O)c(CCC(=O)NCCc4ccccc4F)c(C)c3cc2c1C,inactive: 2.84%,–
COc1ccc(-c2nc3c(c(SCc4ccc(Br)cc4)n2)Cc2c(CO)cnc(C)c2O3)cc1,inactive: 2.74%,–
Cc1ccc(OCCSc2nnc(-c3cccs3)o2)cc1,inactive: -13.7%,–
CCC(=O)N1c2ccccc2CC1C(=O)NCc1ccc(CC)cc1 (centres undefined),inactive: -0.31%,–
Cc1ccc2c(c1)c1c(c(=O)n(-c3ccccc3)c(=O)n1Cc1ccccc1C)n2C,inactive: -0.109%,–
Cc1cc(C)cc(N(CC(=O)NCCc2ccc(Cl)cc2)S(=O)(=O)c2c(C)noc2C)c1,inactive: 0.0975%,–
CN1CCN(C(=O)c2cnn(-c3ccc(F)cc3F)c2C2CCN(C(=O)OC(C)(C)C)CC2)CC1,inactive: 0.631%,–
COc1ccc(NC(=O)Nc2nnc(N3CCCC3)s2)cc1,inactive: 2.82%,–
Cc1ccc2c(=O)cc(C(=O)N(Cc3ccc(C(C)(C)C)cc3)C3CCS(=O)(=O)C3)oc2c1 (centres undefined),inactive: -8.73%,–
Cc1ccc(NC(=O)c2c(C)oc3ccc(O)c(CN4CCOCC4)c23)cc1,inactive: 8.56%,–
O=C(c1cc2c(Cl)nc3ccccc3c2s1)N1CCCCC1,inactive: -6.41%,–
Oc1ccc(-c2nc3ccc(Cl)cn3c2Nc2ccc(Cl)cc2)cc1,inactive: -4.28%,–
COc1ccc(Cn2ccc3nc(C)c(C(=O)NCc4ccc(SC)cc4)cc3c2=O)cc1,inactive: -8.49%,–
Cc1ccc(CNS(=O)(=O)c2cnc(N)nc2)cc1,inactive: 2.44%,–
Cc1ccccc1NC(=O)Cn1nc(-c2ccccc2)nc(Cc2ccccc2)c1=O,inactive: 0.413%,–

SMILES,"activity change, negative = inhibition",Potency
COc1ccc(CNC(=O)CSc2nnc(C)c3c(C)n(-c4ccccc4)nc23)c(OC)c1,inactive: -9.11%,–
CCc1ccc2ncc3c(-c4ccc(C)cc4)nn(CC(=O)NCc4ccccc4)c3c2c1,inactive: -8.13%,–
O=C(CSc1nc2ccccc2n1Cc1cccc(F)c1)NCc1ccccc1,inactive: 0%,–
CCOC(=O)c1sc2ncn(CC(=O)Nc3ccc(OC)c(Cl)c3)c(=O)c2c1C,inactive: -20.5%,–
COc1ccc(-c2nc3sc(CCNC(=O)C(=O)Nc4ccc(OC)c(OC)c4)c(C)n3n2)cc1,inactive: -2.3%,–
Cc1ccccc1Cn1c2ccccc2c2cnn(CC(=O)NC3CCCCCC3)c(=O)c21,inactive: -1.71%,–
COc1ccc(Br)cc1Cn1nnc(C(=O)Nc2cccc(SC)c2)c1N,inactive: -1.06%,–
CC(C)CCNC(=O)Cn1nc(N2CCN(c3ccccc3)CC2)ccc1=O,inactive: -2.86%,–
Cc1ccc(NC(=O)c2ccc(CN3CC(=O)N4CCCCC4C3=O)cc2)c(Cl)c1 (centres undefined),inactive: -14.6%,–
COc1ccc(OC)c(C2C(C(=O)Nc3ccc(C)cc3)=C(C)Nc3nnnn32)c1 (centres undefined),inactive: -0.763%,–
CN1CCN(C(=O)c2ccc3c(c2)N(Cc2ccc(C(F)(F)F)cc2)C(=O)c2ccccc2S3)CC1,inactive: -10.3%,–
CN(CC(=O)Nc1cccc(F)c1)S(=O)(=O)c1ccc2c(c1)n(C)c(=O)c(=O)n2C,inactive: -1.24%,–
CC(=O)c1cccc(NC(=O)CSc2ncc3c(n2)-c2cc(Cl)ccc2N(Cc2ccccc2)S3(=O)=O)c1,inactive: 7.9%,–
COc1cc(CNC(=O)c2cc3n(n2)CCCN(Cc2cccc(F)c2)C3=O)cc(OC)c1OC,inactive: 0%,–
O=C(CC(c1cccs1)N1Cc2ccccc2C1=O)Nc1ccc(F)cc1 (centres undefined),inactive: -10.4%,–
CSc1cccc(NC(=O)c2cc3c(COC(C)=O)cnc(C)c3oc2=O)c1,inactive: 24.3%,–
COc1ccc(S(=O)(=O)NCc2nc(-c3ccccc3)no2)cc1,inactive: -1.51%,–
O=C(CNC(=O)c1ccc(F)cc1)OCc1cc(=O)n2ccsc2n1,inactive: -1.57%,–
COc1ccc(C(=O)Nc2ccc3oc(-c4cccc5c(Br)cccc45)nc3c2)cc1,inactive: 4.8%,–
Cc1ccccc1Cn1c(CN2CCC(C(=O)NCc3ccc(Cl)cc3)CC2)cc2ccccc21,inactive: 0.362%,–
Cc1c(Cl)cccc1NC(=O)C(=O)NCCc1csc(-c2ccc(C(F)(F)F)cc2)n1,inactive: 0.0849%,–
O=S1(=O)c2ccccc2N(Cc2ccccc2F)c2ccccc21,inactive: -0.383%,–
